Experimental data published in ChEMBL document CHEMBL4888484, “Replenishing the malaria drug discovery pipeline: Screening and hit evaluation of the MMV Hit Generation Library 1 (HGL1) against asexual blood stage Plasmodium falciparum ,using a nano luciferase reporter read-out” (2022).
In all, about 150,000 compounds went through this assay and about 540 (0.36%) showed an effect of 50% or more. The list shows a part of the results.

Tested on: Plasmodium falciparum
Assay: Primary screen in NF54 nanoGlo assay, in single point, at 2uM, 72h; a lower Z score goes with more inhibition
Assay type: functional, Erythrocyte
Conditions: timepoint 72 hour

| Structure (SMILES) | % Inhibition | Z score |
| --- | --- | --- |
| CCNC(=O)C1CC(c2cccc(C)c2)CN(Cc2ccccc2F)C1 (configuration not stated) | -2% | 0.27 |
| CCC(=O)N(Cc1ccc(F)cc1)c1ccc(CC(=O)NC(C)C)cc1 | 1% | -0.11 |
| CCN(Cc1csc(C)n1)S(C)(=O)=O | 4% | -0.59 |
| Cc1ccc2c(c1)C[C@@H](C(=O)N1CCN(c3ccnc(C)c3)CC1)N2 | -11% | 1.2 |
| COc1ccc(C2c3[nH]c4ccccc4c3C[C@H]3C(=O)N(Cc4ccccc4)CC(=O)N23)cc1 (some centres not stated) | 2% | -0.25 |
| Cc1nc(-c2ccc(C)c(S(=O)(=O)N3CCC[C@H](C(=O)Nc4ccc(C)c(C)c4)C3)c2)no1 | -9% | 1.23 |
| O=C(NCC1CCCCC1O)C1COCCN1 (configuration not stated) | -8% | 1.09 |
| CC[C@@H](C#N)NC(=O)c1ccc(O)cc1F | -7% | 1.39 |
| COCCn1cc(CC(=O)N2CCCC2)c2cccnc21 | -14% | 1.68 |
| Cc1nc(O)c(Cl)c(-c2ccc(C(=O)NCCCN3CCCC3)cc2)n1 | -5% | 0.98 |
| Cc1nc(C)c(C(=O)NC[C@H]2CCCN(c3nccs3)C2)s1 | 27% | -3.39 |
| COCC[C@@H](COC)NC(=O)c1cnc2c(c1)NC(=O)CO2 | -18% | 2.74 |
| CCn1cc(S(=O)(=O)N2CCc3[nH]c(-c4ccccc4)nc3C2)c(C)n1 | 1% | -0.05 |
| Cn1nc(-c2cncnc2)nc1N1CCCCC1 | -11% | 1.44 |
| CC(=O)c1ccc(NC(=O)c2ccc(-n3nc(OCc4cccc(F)c4)ccc3=O)cc2)cc1 | -21% | 3.67 |
| CNS(=O)(=O)CCNC(=O)c1csc(C2CC2)n1 | -8% | 0.97 |
| CO[C@@H](C)CS(=O)(=O)N(C)c1nc2cc(Cl)ccc2s1 | -3% | 0.52 |
| O=C(CC[C@H]1CCCN(C(=O)C2CCCCC2)C1)N1CCN(c2ccccn2)CC1 | -15% | 1.55 |
| CN1C[C@@H]2CN(Cc3ccnn3-c3ccc(F)cc3)C[C@@H]2C1 | -6% | 0.86 |
| C[C@H](NC(=O)c1[nH]nc2c1CCCC2)c1ncon1 | 1% | -0.12 |
| OCC#Cc1csc(CN2CCC(c3nnc[nH]3)CC2)c1 | -11% | 1.34 |
| CCOc1ccc(Br)cc1NCC(=O)N(C)CCC#N | -19% | 1.68 |

| Structure (SMILES) | % Inhibition | Z score |
| --- | --- | --- |
| CC1CCC(O)C(C2CCCN2C(=O)NCc2cccn2C)C1 (configuration not stated) | -3% | 0.54 |
| CC1CC1c1ccc(CNCC2(CO)CCOCC2)o1 (configuration not stated) | -7% | 1.28 |
| COc1ccc(CC(=O)NCCc2cccc3cccnc23)cc1 | -14% | 1.59 |
| Cc1csc(C2CN(C(=O)C3CCc4nncn4C3)CCO2)n1 (configuration not stated) | -7% | 0.86 |
| N#CC1(C(=O)N2CC(c3cccc(C(F)(F)F)c3)C2)CCOCC1 | 1% | -0.13 |
| CCOC(=O)C[C@H](N)c1cccc(C)c1C | 10% | -1.51 |
| Cc1cc(Cc2ccc(S(=O)(=O)NC3CCCC(C)C3C)cc2)c(=O)[nH]n1 (configuration not stated) | -6% | 0.64 |
| Cc1cc(N2CCC(c3ccn[nH]3)CC2)c(C#N)c(C)n1 | 30% | -3.42 |
| O=C(CCc1c[nH]c2ccccc12)Nc1nc([C@@H]2CCCO2)n[nH]1 | -8% | 1.1 |
| CC[C@H](C)N(CC(=O)OC)S(=O)(=O)C1CC1 | -6% | 0.94 |
| O=c1oc(CN2CCOC[C@H]2C2CCC2)c(-c2ccccc2)o1 | 2% | -0.28 |
| C=CCNC(=O)c1csc(-c2ccc(OCc3ccccc3Cl)cc2Cl)n1 | -2% | 0.22 |
| COCC[C@H]1CN(Cc2cnc(C)cn2)CCO1 | -2% | 0.45 |
| COC(=O)[C@@H]1C[C@@H](O)CN1Cc1cnn(-c2ccccc2)c1 | -4% | 0.7 |
| Cc1ccc(C)c(Cn2ccn3nc(-c4ccc5c(c4)OCO5)cc3c2=O)c1 | -17% | 2.12 |
| COc1cccc([C@H]2CCN(C(=O)CCC(=O)c3ccccc3)C2)c1OC | -7% | 1.19 |
| COCCn1ccnc1C1CCN(S(=O)(=O)c2sccc2C)CC1 | 2% | -0.28 |
| CC(C)(C)C(=O)N1CC[C@H](S(C)(=O)=O)C1 | -10% | 1.75 |
| c1ccc(-c2noc(C3CCN(c4ccc5nncn5n4)CC3)n2)nc1 | -18% | 2.08 |
| COc1ccc(NC(=O)c2nn(-c3ccccc3)c3ccccc3c2=O)cc1Cl | -9% | 1.18 |
| Cc1cnc2c(Cl)c(C(=O)N3CCC[C@@](O)(CN(C)C)C3)nn2c1 | -8% | 1.04 |
| CN(Cc1ccns1)c1cc(C2CC2)nc(C2CC2)n1 | -4% | 0.39 |

| Structure (SMILES) | % Inhibition | Z score |
| --- | --- | --- |
| O=C(Nc1cc(CCc2ccccc2)n[nH]1)[C@@H]1CCCO1 | -1% | 0.14 |
| COc1cc(OC)nc(-c2ccc(C(=O)N3CCC[C@H](C#N)C3)cc2)n1 | 7% | -1.36 |
| O=C(Nc1ccc2c(c1)OCCCO2)C1CC2CCCCC2N1S(=O)(=O)c1ccccc1 (configuration not stated) | -9% | 1.23 |
| CC(C)c1nc([C@H](CO)NC(=O)c2ccn(C)n2)cs1 | 6% | -0.84 |
| COc1ccccc1NC(=O)Cn1c(C)nc2c(-c3ccncc3)nsc2c1=O | -2% | 0.31 |
| CNc1ccc(S(=O)(=O)NC)cc1N | -9% | 1.65 |
| O=C(c1cccs1)N(CCN1CCOCC1)c1nc2ccc(F)cc2s1 | -9% | 1.2 |
| COc1ncnc(OC)c1C(=O)N1CCN(c2cccc(C)c2C)CC1 | 0% | 0 |
| CCCS(=O)(=O)Nc1ncc(Cc2ccc(F)c(C#N)c2)s1 | -17% | 2.8 |
| COc1cc2c(cc1OC)C(c1ccccc1)N(CN1C(=O)NC3(CCCCC3C)C1=O)CC2 (configuration not stated) | -7% | 1.37 |
| COc1ccc(-c2cc(C(F)(F)F)c3c(C)nn(-c4nc5ccccc5s4)c3n2)cc1OC | 6% | -0.73 |
| COc1cnc(C(C)(C)NC(=O)CC(C2CCC2)C2CCC2)[nH]c1=O | -13% | 1.45 |
| O=C(NC1CCCC2OCCC12)N(Cc1ccco1)CC1CCCO1 (configuration not stated) | -9% | 1.28 |
| CCc1ncc(CN2CCO[C@@H](COCC3CC3)C2)cn1 | -17% | 3.22 |
| O=C(NC[C@H]1CCc2ccccc2N1)Nc1cccnc1 | -5% | 0.73 |
| COC(=O)c1cc(CN2CCOc3cc(N(C)C)ccc32)c[nH]1 | 3% | -0.49 |
| O=C(NCC(=O)N1CCCC1)c1cccc(-c2cn[nH]c2)c1 | -11% | 1.83 |
| COCc1nc(CN(Cc2ccc3c(c2)OCO3)C2(C)CCCC2)cs1 | -1% | 0.1 |
| COc1ccc(-n2nc(C)c3c2NC(=O)C[C@@H]3c2cccc3ccccc23)cc1 | -15% | 2.88 |
| Cc1ccn2c(NCc3cccc(C#N)c3)nnc2c1 | 2% | -0.24 |
| NCC1([C@@H]2CCCCN2Cc2noc(-c3ccccc3)n2)CCC1 | -6% | 1.12 |
| CN(C)S(=O)(=O)N(Cc1ccco1)Cc1nn(C)c2c1CCC2 | 9% | -1.13 |

| Structure (SMILES) | % Inhibition | Z score |
| --- | --- | --- |
| O=C(CN1CCc2[nH]c3c(F)c(Cl)ccc3c(=O)c2C1)Nc1ccc(F)c(Cl)c1 | 8% | -1.47 |
| O=c1[nH]cnc2c1nc(N1CCCCC1)n2C1OC(CO)C(O)C1O (configuration not stated) | 33% | -0.92 |
| Cc1c(Cl)cnc(NC(=O)COC(=O)C2CCCC2)c1Cl | -6% | 1.03 |
| OC[C@H](CNc1nc(-c2ccccc2)nc2ccccc12)Cc1ccco1 | -16% | 1.57 |
| C[C@H](O)C1CCN(C(=O)Nc2cccc3ccn(C)c23)CC1 | -10% | 1.97 |
| CC(C)N1C(=O)NC(C)(C2CCCN(CCc3cnn(C)c3)C2)C1=O (configuration not stated) | -14% | 1.38 |
| COc1ccc(CC(=O)NCCn2cnc3ccccc32)c(Cl)c1 | 7% | -1.17 |
| O=C(NC[C@@H](CO)CC1CCCC1)C1CCCC1 | -3% | 0.41 |
| O=C(NCc1ccccn1)c1cc2n(n1)CCN(Cc1ccc(Cl)c(Cl)c1)C2=O | 8% | -0.78 |
| COc1ccnc(CNC(=O)Cc2ccccn2)c1 | 1% | -0.21 |
| CCOC(=O)CCC(=O)Nc1cccc(-c2cnc3n2CCC3)c1 | -6% | 0.96 |
| Cc1noc(CO[C@H]2CCC23CCN(C(=O)c2ccccc2F)CC3)n1 | -2% | 0.25 |
| CN1CCCN(CC(=O)NC(Cc2ccccc2)[C@H]2C[C@H](O)C2)CC1 (some centres not stated) | -4% | 0.9 |
| CCCn1nccc1S(=O)(=O)NCC1(N(C)C)CCCCC1 | 3% | -0.55 |
| Cc1nccn1-c1cc(CNS(=O)(=O)N2CCCCC2)ccn1 | -1% | 0.16 |
| CO[C@H]1[C@H](NC(=O)Cc2cccs2)c2ccccc2C12CCN(Cc1cc(F)ccc1F)CC2 | 5% | -0.71 |
| CCC(COc1ccccc1)NC(=O)CC1CNCCO1 (configuration not stated) | -5% | 0.49 |
| O=C(Nc1ccc2c(c1)CCCC2)[C@@H]1CCCO1 | -4% | 0.47 |
| COc1ccc(C)cc1S(=O)(=O)N1CCc2nc(NC(=O)c3cc(C)on3)sc2C1 | -7% | 0.98 |
| COc1ccc(S(=O)(=O)N(CC(=O)N2CCNCC2)C2CCCC2)cc1 | 3% | -0.57 |
